Experimental data taken from the supplement of paper PMC7826260.
The other results are listed elsewhere or left out. The data describe in vitro nicking of single-stranded DNA by Rep domains (1 h at 37 °C, 3 µM enzyme); the outer parts of the 90-letter strands are left off. Values are log2 of uncut reads against the no-enzyme pool; more negative means more cut, near 0 not cut, and no call is made. Because reads are shares of a total, they shift together, so uncut sequences can rise above 0 when many others are cut.

Key:
Experiment in all cases: uncleaved DNA left, log2 of reads against the no-enzyme library (log2 ratio); higher = less cleavage (more negative = more Rep cleavage of the k-mer); sequences stand for … in CTCGTCCG…ACCGGAGA
[1] = system: T1, Rep nickase domain of Muscovy duck circovirus
T1 sequence (Rep 1-111, printed without the tag): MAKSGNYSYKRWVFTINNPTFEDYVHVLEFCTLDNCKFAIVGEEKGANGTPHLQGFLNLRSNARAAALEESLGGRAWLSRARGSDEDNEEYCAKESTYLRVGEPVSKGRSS
Protocol: (§1)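 A pool of 90-nt single-stranded DNAs with seven random bases just before the constant AC of the nick site (name = the seven bases) was cut by 3 µM recombinant His6-SUMO-tagged Rep nickase domain (300 nM DNA, 50 mM HEPES pH 8.0, 50 mM NaCl, 1 mM MnCl2, 1 h, 37 °C, three replicates). Uncut DNA was amplified and sequenced.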

[2] = system: T2, Rep nickase domain of banana bunchy top virus
T2 sequence (Rep 1-94, printed without the tag): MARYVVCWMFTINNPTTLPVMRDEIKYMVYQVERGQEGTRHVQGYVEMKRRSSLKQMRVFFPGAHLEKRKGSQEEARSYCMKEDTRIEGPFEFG
Protocol: as §1

[3] = system: T3, Rep nickase domain of cabbage leaf curl virus
T3 sequence (Rep 1-116, printed without the tag): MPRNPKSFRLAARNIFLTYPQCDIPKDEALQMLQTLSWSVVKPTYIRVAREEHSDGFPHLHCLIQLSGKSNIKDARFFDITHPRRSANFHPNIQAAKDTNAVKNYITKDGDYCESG
Protocol: as §1

[4] = system: T4, Rep nickase domain of chickpea chlorotic dwarf virus
T4 sequence (Rep 1-124, printed without the tag): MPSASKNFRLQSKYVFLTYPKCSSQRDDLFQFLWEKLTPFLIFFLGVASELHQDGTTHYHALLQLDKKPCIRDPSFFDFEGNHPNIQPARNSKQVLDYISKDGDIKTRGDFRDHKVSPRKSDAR
Protocol: as §1

[5] = system: T5, Rep nickase domain of faba bean necrotic yellows virus
T5 sequence (Rep 1-98, printed without the tag): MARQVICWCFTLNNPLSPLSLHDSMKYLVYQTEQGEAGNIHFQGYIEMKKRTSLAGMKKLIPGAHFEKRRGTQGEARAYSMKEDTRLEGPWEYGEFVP
Protocol: as §1

[6] = system: T6, Rep nickase domain of maize striate mosaic virus
T6 sequence (Rep 1-117, printed without the tag): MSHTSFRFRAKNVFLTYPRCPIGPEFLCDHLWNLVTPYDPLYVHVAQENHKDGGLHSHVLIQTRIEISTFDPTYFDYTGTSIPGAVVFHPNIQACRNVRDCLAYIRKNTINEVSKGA
Protocol: as §1

[7] = system: T7, Rep nickase domain of porcine circovirus 2
T7 sequence (Rep 2-116, printed without the tag): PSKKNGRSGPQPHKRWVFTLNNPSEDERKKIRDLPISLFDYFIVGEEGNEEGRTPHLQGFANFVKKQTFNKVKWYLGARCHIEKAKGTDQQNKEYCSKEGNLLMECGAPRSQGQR
Protocol: as §1

[8] = system: T8, Rep nickase domain of tomato golden mosaic virus
T8 sequence (Rep 1-124, printed without the tag): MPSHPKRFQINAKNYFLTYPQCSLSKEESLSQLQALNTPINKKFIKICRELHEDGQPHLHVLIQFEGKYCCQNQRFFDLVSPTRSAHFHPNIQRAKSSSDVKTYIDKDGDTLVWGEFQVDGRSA
Protocol: as §1

[9] = system: T9, Rep nickase domain of tomato yellow leaf curl virus
T9 sequence (Rep 1-136, printed without the tag): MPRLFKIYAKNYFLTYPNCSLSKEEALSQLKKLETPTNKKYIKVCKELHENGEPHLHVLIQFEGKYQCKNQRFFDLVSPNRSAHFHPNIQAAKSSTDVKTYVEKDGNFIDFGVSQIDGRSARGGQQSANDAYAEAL
Protocol: as §1

[10] = system: T10, Rep nickase domain of wheat dwarf virus
T10 sequence (Rep 1-137, printed without the tag): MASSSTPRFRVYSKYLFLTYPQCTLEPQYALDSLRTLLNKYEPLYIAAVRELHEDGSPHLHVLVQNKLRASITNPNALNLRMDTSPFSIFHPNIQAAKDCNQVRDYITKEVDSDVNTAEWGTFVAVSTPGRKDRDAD
Protocol: as §1

Sequence	uncleaved DNA left (log2) [1]	uncleaved DNA left (log2) [2]	uncleaved DNA left (log2) [3]	uncleaved DNA left (log2) [4]	uncleaved DNA left (log2) [5]	uncleaved DNA left (log2) [6]	uncleaved DNA left (log2) [7]	uncleaved DNA left (log2) [8]	uncleaved DNA left (log2) [9]	uncleaved DNA left (log2) [10]
TCGGATA	0.00205	0.018	0.243	0.732	-0.021	1.36	0.00816	0.0527	-0.00194	0.0789
ATCTGAA	0.0155	-0.132	-0.0184	0.483	0.0732	0.571	0.114	0.169	0.000705	0.108
AATTCGA	0.0948	-0.0377	-0.69	-0.818	0.00422	-1.15	0.0852	-0.0517	0.003	-0.0659
CTGGAAA	0.138	0.116	0.245	0.442	0.296	0.134	0.0738	0.144	0.105	0.165
AATAGTA	-0.111	-0.0409	-0.246	-1.95	-0.0859	-1.05	-0.31	-0.0327	-0.0491	-0.0682
CAAATTA	0.0852	-0.0871	-0.261	-2.64	-0.0523	-0.682	-0.0341	0.122	-0.0279	-0.163
CCTACTC	-0.121	-0.24	-0.201	-2.27	-0.0965	-0.657	-0.122	-0.192	-0.215	-0.232
TACACTC	0.0886	0.0187	-0.347	-1.59	-0.009	-0.709	0.0156	0.00934	-0.0594	-0.0479
GAGATTG	-0.0215	0.0557	-0.0183	1.25	0.0115	1.05	-0.0143	-0.00264	0.0235	0.0166
CGGTGAT	0.224	0.129	0.401	1.38	-0.0598	1.92	-0.625	0.237	0.0952	0.0984
TCCCTCC	0.0329	0.0556	0.259	0.069	0.0394	0.548	0.122	0.0498	-0.0364	-0.0783
TACAGTG	0.121	-0.0145	-0.834	-0.955	0.0341	-1.11	0.156	-0.0361	-0.0208	-0.0905
AATAGAA	0.011	-0.0127	0.0106	-0.189	0.125	-0.509	0.041	0.0328	-0.0184	-0.00459
AGCGGGA	0.112	0.195	0.185	0.675	0.146	1.09	0.0832	0.194	0.0952	0.219
CGGGTCA	0.0491	0.0975	0.795	1.54	-0.00561	2.06	0.266	0.027	0.0866	0.232
TCGTCTT	-2.59	-0.754	-0.569	-2.2	-1.22	-0.272	-3.23	-0.215	-0.279	-0.463
GGCTTCG	0.121	-0.0586	-0.00637	-0.0957	-0.0457	-0.388	0.195	0.052	0.136	0.0997
CGAGCCT	0.0713	0.0978	-0.0817	-0.238	-0.00675	0.629	-0.164	-0.0238	-0.0195	0.0621
TAATGTA	-2.7	-0.115	-2.99	-2.81	-0.123	-2.3	-3.07	-3.02	-0.0267	-3.01
GCGGTTG	0.0756	0.0128	0.072	0.584	0.0512	1.61	0.192	0.0683	0.0083	0.0676
GGTCGAG	0.114	0.0308	0.856	1.82	-0.0674	2	0.183	0.118	0.0747	0.116
TTAAGAG	0.153	0.11	-0.374	-0.659	0.16	-1.02	0.172	0.0552	0.203	0.0553
CAGACTA	0.11	0.0355	0.133	-0.407	0.102	0.947	-0.155	0.158	0.18	0.0766
CTTGGTC	-0.0954	-0.135	-0.0447	-0.0968	-0.182	-0.967	-0.0826	-0.232	-0.215	-0.172
CAGAATG	0.144	0.166	-0.0637	0.6	0.125	0.545	0.256	0.187	0.0692	0.161
GTGGGCC	0.0544	0.0595	0.48	1.09	-0.0403	1.93	0.134	0.0745	-0.0608	-0.00548
TTTATTA	-0.0266	0.0233	0.226	-0.713	-0.0171	0.193	-0.163	0.0663	0.0228	0.122
CGGCCTC	0.0235	-0.0239	0.0963	0.428	-0.0618	1.04	0.00925	0.0518	0.0474	0.0857
GTCACTT	0.0454	0.0483	0.197	0.528	-0.0721	1.52	-0.0338	0.00442	-0.0249	0.0102
GTCAGAG	0.0427	0.161	0.39	0.765	-0.0246	1.17	0.235	0.162	0.0705	0.0877
